The chains are these.
B1: tRNA (parent)
chain: CUCUCGGUAGCCAAGUUGGUUUAAGGCGCAAGACUUUAAUUUAUCACUACGAAAUCUUGAGAUCGGGCGUUCGACUCGCCCCCGGGAGAUUUUUUCCUCGAGCAA

Variants at the background level are over-represented here.

The series covers variants of B1. As to the kind of experiment: nonsense suppression (GFP-seq) (ratio to wild type); higher = more function; SUP4oc tRNA, yeast GFP reporter sort-seq. In short, it runs like this: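 Sorted GFP/RFP bins of yeast were each Illumina-sequenced with a phred ≥30 cutoff; the cells held a genome-integrated ochre-suppressor tRNA variant from a library with ~3% random mutations, a galactose-driven GFP ochre reporter, and RFP. Culture was in raffinose/galactose medium containing 80 mg/L adenine. Nonsense suppression, termed GFPSEQ, is the median GFP/RFP of the bins weighted by each variant's estimated cell share per bin, relative to the unmutated parent tRNA, for variants reaching ≥100 reads and ≥30 cells.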
Consider CUCUCGGUAGCCAAGUUGGUUUAAGGCGCAAGACUUUAAUUUAUCACUACGAAAUCUUGACAUGGGGCGUUCGACUCGCCCCCGGGAGAUUUUUUCCUCGAGCAA, for which the nonsense suppression was not above 0.026.

Take CUCCCGGUAGCCAAGUUGAUUUAUGGCGCAAGACUUUAAUUUAUCACUACGAAAUCUUGAGAUCGAGCGUUCGACUCGCCCCCGGGGGAUUUUUUCCUCGAGCAA: the nonsense suppression was not above 0.026.

Turning to CUCUCGGUAGCCAAGUAUGUUUGAGGCGCAAGACUUUAAUUUAUCACUACGAAAUCUUGAGAUCGGGCGUUCGACUCGCACCCGGGAUAUUUUUUCCUCGAGCAA, the nonsense suppression is not above 0.026.

Consider CUCUCGGUAGCCAAGUUGGUUUAAGGCGCAAGACUUUAAUUUAUCACUACGAAAUCUUGAGAUGGGGCGCUCGACUCGCCCCCUGGAGAUUUUUUCCUCGAGCAA, for which the nonsense suppression is not above 0.026.

Regarding CCCUCGGUAGCCAAGUUGGCUUAUGGCGCAAGACUUUAAUUUAUCACUACGAAAUCUUGAGAUCGGGCGUUCGACUCGCCCCCGGGAGAUUUUUUCCUCGAGCAA, the nonsense suppression is not above 0.026.

Take CUCUCGGUAGCCAAGUUGGUUUAAGGCGUAAGACUUUAAUUUAUCACUACGAAAUCCUGAGCUCGGGCGUUCGACUCGCCCCCGGGAGAUUUUUUCCUCGAGCAA: the nonsense suppression was not above 0.026.

For CUCUCGGUACCCAAGUUGGUUUUAGGCGCAAGACUUUAAUUUAUCACUACGAAAUCUAGAGAUCGGACGUUCGACUCGCCCCCGGGAGAUUUUUUCCUCGAGCAA, the nonsense suppression was not above 0.026.

In the case of CUCUCGGUAGCCAAGUUGGUUUAACGCGCAUGACUUUAAUUUAUCACUACGAAAUCUUGAGAUCGGGCGUUCGACUCGCCCGCGGGAGAUUUUUUCCUCGAGCAA, the nonsense suppression was not above 0.026.

As for CUCUCGGUAGCCAAGUUGAUUUAAGGCGCAAGACUUUAAUUUAUCACUACGAAAUCUUGAGAUCCGGCGUUCGACUCGCCCCCGGGAGAUUUUUUCCUCGAGCAA, the nonsense suppression is not above 0.026.

As for CACUCGGUCGCCAAGUUGGUUUAAGGCGUAAGACUUUAAUUUAUCACUACGAAAUCUUGAGAUCGGGAGUUCGACUCGCCCCCGGGAGAUUUUUUCCUCGAGCAA, the nonsense suppression is not above 0.026.

Turning to CUCUCGGUAGCCAAGUUGGUUUAAGGAGGAAGACUUUAAUUUAUCACUACGAAAUCUUGAGAUCAGGCGUUCGACUCGCCCCCGGGAGAUUUUUUCCUCGAGCAA, the nonsense suppression is not above 0.026.

For CUCUCGGUAGUGAAGUUGGUUUAAGGCGCAAGACUUUAAUUUAUCACUACGAAAUCUUGAGAUCGGGCGUUCGACUCGCCCCCGGGAGGUUUUUUCCUCGAGCAA, the nonsense suppression is not above 0.026.

As for CUCUCGGUAGCCAAGUUGGUUUAAGGCGCAAGACUUUAAUUUAUCACUACGAAAUCUUGAGAACGGGCGGUCGACUCGCCCCCGGGAGAUUUUUUCCUCGAGCAA, the nonsense suppression was not above 0.026.

In the case of CUCUCGGUAGCCAAGUUGGUUUUAGGCGCAUGACUUUAAUUUAUCACUACGAAAUCUCGAGAUCGAGCGUUCGACUCGCCCCCGGGAGAUUUUUUCCUCGAGCAA, the nonsense suppression is not above 0.026.

Consider CUCUCGGUAGCCAAGCUGUUUUAAUGCGCAAGACUUUAAUUUAUCACUACGAAAUCUUGAGAUCGGGCGUUCGACUCGCCCCCGGGAGAUUUUUUCCUCGAGCAA, for which the nonsense suppression is not above 0.026.

For the variant CUCUCGGUAGCCGAGUUGGUUAAAGGCGCAAGACUUUAAUUUAUCACUACGAAAUCUUGAGAUCGGGCGUUCGACUCGCCCCCGGGCGAUUUUUUCCUCGAGCAA, the nonsense suppression was not above 0.026.

Consider CUCUCGGUAGCCACGUUGGUUUAAGGCGCAAGACUUUAAUUUAUCACUACGAAAUCUUGAGCUCGCGCGUUCUACUCGCCCCCGGGAGAUUUUUUCCUCGAGCAA, for which the nonsense suppression was not above 0.026.

CUCUCGGUAGCCAAGUUGGUUUAAGGCGCAAGACUUUAAUUUAUCACUACGAACUCUUGAGAUCGGGCGUUCGACUCGCCCCCGGUAGAUUUUUUCCUCGAGCAA: the nonsense suppression was not above 0.026.

With CUCUCGGUAGCCAAGUUGGUUUAAUGCGCAAGACUUUAAUUUAUCACUACGAAAUCUUGAAAUCGCGCGUUCGACUCGCCCCCGGGAGAUUUUUUCCUCGAGCAA, the nonsense suppression was not above 0.026.

Take CUCUCGGUAGCCAAGUUGAUUUAAGGCGCAACACUUUAAUUUAUCACUACGAAAACUUGAGAUCGGGCGUACGACUCGCGCCCGGGAGAUUUUUUCCUCGAGCAA: the nonsense suppression was not above 0.026.

Regarding CUUGCGGUAGCCAAGUUGGUUUGCGGCGCAAGACUUUAAUUUAUCACUACGAAAUCUUGAAAUCGGGCGUUCGACUCGCCCCCGGGAGAUUUUUUCCUCGAGCAA, the nonsense suppression is not above 0.026.

Take CUCUCGGUAGCCAAGUAGGUUUAAGUCGCAAGACUUUAAUUUAUCACUACGAAAUCUUGAGAUCCGGCGUUCGCCUCGCCCCCGGGAGAUUUUUUCCUCGAGCAA: the nonsense suppression was not above 0.026.

In the case of CUCUUGGUAGCCGAGUUGGUUUAAGGCGCAACACUUUAAUUUAUCACUACGAAAUCUUGAGAUCGGGCGUUCGACUCGCGCCCGGGAGAUUUUUUCCUCGAGCAA, the nonsense suppression is not above 0.026.

CCCUCGGUAGCCAAGUUGGUUGAAGGCGCAAGGCUUUAAUUUAUCACUACGAAAUCUUGAGAUCGAGGGUUCGACUCGCCCCCGGGAGAUUUUUUCCUCGAGCAA: the nonsense suppression was not above 0.026.

CUCCCGGUAGCCAAGUUGGUUUAAGGCGCAAGAAUUUAAUUUAUCACUACGAAUUCUUGAGAUCGGGCGUUCGACUCGCCCCCGGGAGAUUUUUUCCUCGAGCAA: the nonsense suppression was not above 0.026.

CUCUCGGUAGCCAAGUUGGUUUAAGGCGCAAGACUUUAAUUUAUCACUACGAAAUCUUAAGAUCGGGCGAUCGACUCGCCCCCGGGAGAUUUUUUCCUCGAGCAA: the nonsense suppression is not above 0.026.

Consider CUCUCGGUAGCCAAGUUGGUUUAAGGCGCAAGACUUUAAUUUAUCACUACGAAAUCUUGAGAUCGGGAGUUCGACUCGCCCCCGCGAGGUUUUUUCCUCGAGCAA, for which the nonsense suppression is not above 0.026.

Values taken from the RNAGym collection of RNA variant scans (doi:10.1101/gad.245936.114).
